Some of the results follow. Most values come without repeats; read them as rough.

This is an account of results in the supplement of paper PMC4604168 (melanoma cell lines).
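Note: cell number obtained by counting DAPI-stained nuclei in high-throughput microscope images with image analysis software, screen run in 1,536-well plates.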

This experiment deals with RPMI7951. The experiment can be described thus: cell count relative to DMSO control; melanoma cells; higher = more viable cells. The note with it: library dose: low library concentration; 72 h.
As for `O=C(O)[C@@H]1[O][Sb](=[O])([O][Sb]2(=[O])[O][C@H]([C@H](O)CO)[C@H](O)[C@H](C(=O)O)[O]2)[O][C@H]([C@H](O)CO)[C@@H]1O` (stereo not given in full) [stibogluconate] + CN(C)S(=O)(=O)c1ccc2c(c1)/C(=C/c1cc3c([nH]1)CCCC3)C(=O)N2 [SU6656] (first compound 2 µM, partner dose 0.4 µM), the cell count is 96.2%.

`O=C(O)c1ccc2c(c1)nc(Nc1cccc(Cl)c1)c1ccncc12` + C[C@]1(c2nc3c(C(N)=O)cccc3[nH]2)CCCN1 [Veliparib] (first compound 0.4 µM, partner dose 1.4 µM): the cell count was 76.7%.

In turn, `O=C(Nc1cc(C(F)(F)F)cc(C(F)(F)F)c1)c1cc(Cl)ccc1O` + NC(=O)c1ccc(N(C(N)=O)c2c(F)cccc2F)nc1-c1ccc(F)cc1F [VX702] (first compound 0.016 µM, partner dose 0.4 µM) gave a cell count of 111%.

With `O=C(Nc1cc(C(F)(F)F)cc(C(F)(F)F)c1)c1cc(Cl)ccc1O` + Cn1cnc2c(F)c(Nc3ccc(Br)cc3Cl)c(C(=O)NOCCO)cc21 [selumetinib] (first compound 0.016 µM, partner dose 0.015 µM), the cell count is 98.7%.

In the case of `O=C(O)c1ccc2c(c1)nc(Nc1cccc(Cl)c1)c1ccncc12` + O=C1NC(=O)/C(=C/c2ccc(-c3ccc(F)cc3O)o2)S1 [AS252424] (first compound 0.4 µM, partner dose 1 µM), the cell count is 80.4%.

Regarding `O=C(Nc1cc(C(F)(F)F)cc(C(F)(F)F)c1)c1cc(Cl)ccc1O` + O=C(O)[C@@H]1[O][Sb](=[O])([O][Sb]2(=[O])[O][C@H]([C@H](O)CO)[C@H](O)[C@H](C(=O)O)[O]2)[O][C@H]([C@H](O)CO)[C@@H]1O [stibogluconate] (first compound 0.016 µM, partner dose 2 µM), the cell count stood at 94.9%.

The compound `O=C(O)c1ccc2c(c1)nc(Nc1cccc(Cl)c1)c1ccncc12` + OCc1c[nH]c2ccccc12 [Indole-3-carbinol] (first compound 0.4 µM, partner dose 0.8 µM) came in with a cell count of 98.1%.

For `O=C(Nc1cc(C(F)(F)F)cc(C(F)(F)F)c1)c1cc(Cl)ccc1O` + COc1cc2ncnc(Nc3ccc(Oc4ccccc4)cc3)c2cc1OC [SrcI1] (first compound 0.016 µM, partner dose 2 µM), the cell count is 114%.

As for `O=C(O)[C@@H]1[O][Sb](=[O])([O][Sb]2(=[O])[O][C@H]([C@H](O)CO)[C@H](O)[C@H](C(=O)O)[O]2)[O][C@H]([C@H](O)CO)[C@@H]1O` (stereo not given in full) [stibogluconate] + COc1cc(Nc2ncc(F)c(Nc3ccc4c(n3)NC(=O)C(C)(C)O4)n2)cc(OC)c1OC [Tamatinib] (first compound 2 µM, partner dose 0.4 µM), the cell count turned out to be 64.9%.

With `O=C(Nc1cc(C(F)(F)F)cc(C(F)(F)F)c1)c1cc(Cl)ccc1O` + CC1(C)CCC(c2ccc(Cl)cc2)=C(CN2CCN(c3ccc(C(=O)NS(=O)(=O)c4ccc(N[C@H](CCN5CCOCC5)CSc5ccccc5)c(S(=O)(=O)C(F)(F)F)c4)cc3)CC2)C1 [ABT263] (first compound 0.016 µM, partner dose 0.4 µM), the cell count was found to be 60.1%.

`O=C(Nc1cc(C(F)(F)F)cc(C(F)(F)F)c1)c1cc(Cl)ccc1O` + CC(C)CCN1c2nc(Nc3cc(F)c(O)c(F)c3)ncc2N(C)C(=O)C1C [BID1870] (first compound 0.016 µM, partner dose 0.2 µM): the cell count is 83.6%.

`O=C(Nc1cc(C(F)(F)F)cc(C(F)(F)F)c1)c1cc(Cl)ccc1O` + O=C(Nc1cccc(Cl)c1)Nc1ncc(CCNc2ncnc3ccsc23)s1 [SNS314] (first compound 0.016 µM, partner dose 0.0008 µM): the cell count came out at 92.9%.

Compound `O=C(O)[C@@H]1[O][Sb](=[O])([O][Sb]2(=[O])[O][C@H]([C@H](O)CO)[C@H](O)[C@H](C(=O)O)[O]2)[O][C@H]([C@H](O)CO)[C@@H]1O` (stereo not given in full) [stibogluconate] + CCc1ccc(CCOc2ccc(CC3SC(=O)NC3=O)cc2)nc1 [pioglitazone] (first compound 2 µM, partner dose 2 µM) returned a cell count of 105%.

In the case of `O=C(O)[C@@H]1[O][Sb](=[O])([O][Sb]2(=[O])[O][C@H]([C@H](O)CO)[C@H](O)[C@H](C(=O)O)[O]2)[O][C@H]([C@H](O)CO)[C@@H]1O` (stereo not given in full) [stibogluconate] + O=C(O)C(=O)Nc1sc2c(c1C(=O)O)CCNC2 [TCS401] (first compound 2 µM, partner dose 1.66667 µM), the cell count was determined as 106%.

`O=C(Nc1cc(C(F)(F)F)cc(C(F)(F)F)c1)c1cc(Cl)ccc1O` + CS(=O)(=O)c1ccc(C(=O)Nc2ccc(Cl)c(-c3ccccn3)c2)c(Cl)c1 [vismodegib] (first compound 0.016 µM, partner dose 1 µM): the cell count was 115%.

For `O=C(Nc1cc(C(F)(F)F)cc(C(F)(F)F)c1)c1cc(Cl)ccc1O` + COc1ccc(Cl)c(Nc2nc3ccccc3nc2NS(=O)(=O)c2cccc(NC(=O)C(C)(C)N)c2)c1 [XL147] (first compound 0.016 µM, partner dose 0.8 µM), the cell count was 125%.

As to `O=C(O)c1ccc2c(c1)nc(Nc1cccc(Cl)c1)c1ccncc12` + Cn1nnc2c(C(N)=O)ncn2c1=O [temozolomide] (first compound 0.4 µM, partner dose 2 µM), the cell count was determined as 101%.

`O=C(O)c1ccc2c(c1)nc(Nc1cccc(Cl)c1)c1ccncc12` + CC1(C)NC(=O)N(c2ccc([N+](=O)[O-])c(C(F)(F)F)c2)C1=O [nilutamide] (first compound 0.4 µM, partner dose 1 µM) displayed a cell count of 129%.

The compound `O=C(O)c1ccc2c(c1)nc(Nc1cccc(Cl)c1)c1ccncc12` + Oc1nc(-c2ccc(C(F)(F)F)cc2)nc2c1CSCC2 [XAV939] (first compound 0.4 µM, partner dose 2 µM) came in with a cell count of 82.1%.

In the case of `O=C(O)[C@@H]1[O][Sb](=[O])([O][Sb]2(=[O])[O][C@H]([C@H](O)CO)[C@H](O)[C@H](C(=O)O)[O]2)[O][C@H]([C@H](O)CO)[C@@H]1O` (stereo not given in full) [stibogluconate] + C#Cc1cccc(Nc2ncnc3cc(OCCOC)c(OCCOC)cc23)c1 [erlotinib] (first compound 2 µM, partner dose 0.8 µM), the cell count is 101%.

In turn, `O=C(O)[C@@H]1[O][Sb](=[O])([O][Sb]2(=[O])[O][C@H]([C@H](O)CO)[C@H](O)[C@H](C(=O)O)[O]2)[O][C@H]([C@H](O)CO)[C@@H]1O` (stereo not given in full) [stibogluconate] + C[C@@H]1CCN(C(=O)CC#N)C[C@@H]1N(C)c1ncnc2[nH]ccc12 [CP690550] (first compound 2 µM, partner dose 1 µM) displayed a cell count of 89.4%.

`O=C(O)[C@@H]1[O][Sb](=[O])([O][Sb]2(=[O])[O][C@H]([C@H](O)CO)[C@H](O)[C@H](C(=O)O)[O]2)[O][C@H]([C@H](O)CO)[C@@H]1O` (stereo not given in full) [stibogluconate] + OCc1c[nH]c2ccccc12 [Indole-3-carbinol] (first compound 2 µM, partner dose 0.8 µM): the cell count worked out at 112%.

As to `O=C(Nc1cc(C(F)(F)F)cc(C(F)(F)F)c1)c1cc(Cl)ccc1O` + Clc1ccc(Nc2nnc(Cc3ccncc3)c3ccccc23)cc1 [vatalanib] (first compound 0.016 µM, partner dose 2 µM), the cell count turned out to be 92.4%.

Consider `O=C(Nc1cc(C(F)(F)F)cc(C(F)(F)F)c1)c1cc(Cl)ccc1O` + CN(NC(=O)CC(=O)NN(C)C(=S)c1ccccc1)C(=S)c1ccccc1 [STA4783] (first compound 0.016 µM, partner dose 0.006 µM), for which the cell count worked out at 96.4%.

On to `O=C(Nc1cc(C(F)(F)F)cc(C(F)(F)F)c1)c1cc(Cl)ccc1O` + COCC[n+]1c2c(n(Cc3cnccn3)c1C)C(=O)c1ccccc1C2=O [YM155] (first compound 0.016 µM, partner dose 0.0004 µM), for which the cell count was 94.5%.

In the case of `O=C(Nc1cc(C(F)(F)F)cc(C(F)(F)F)c1)c1cc(Cl)ccc1O` + O=C(O)c1ccc2c(c1)nc(Nc1cccc(Cl)c1)c1ccncc12 [CX4945] (first compound 0.016 µM, partner dose 0.4 µM), the cell count was found to be 104%.

With `O=C(Nc1cc(C(F)(F)F)cc(C(F)(F)F)c1)c1cc(Cl)ccc1O` + CCCCCCCCCCCCCCCCCCOP(=O)([O-])OC1CC[N+](C)(C)CC1 [Perifosine] (first compound 0.016 µM, partner dose 0.4 µM), the cell count was determined as 115%.

Consider `O=C(O)c1ccc2c(c1)nc(Nc1cccc(Cl)c1)c1ccncc12` + NC(=O)Nc1cc(-c2cccc(F)c2)sc1C(=O)N[C@H]1CCCNC1 [AZD7762] (first compound 0.4 µM, partner dose 0.02 µM), for which the cell count turned out to be 91.8%.

`O=C(Nc1cc(C(F)(F)F)cc(C(F)(F)F)c1)c1cc(Cl)ccc1O` + C#Cc1cccc(Nc2ncnc3cc(OCCOC)c(OCCOC)cc23)c1 [erlotinib] (first compound 0.016 µM, partner dose 0.8 µM): the cell count was 108%.

Turning to `O=C(O)[C@@H]1[O][Sb](=[O])([O][Sb]2(=[O])[O][C@H]([C@H](O)CO)[C@H](O)[C@H](C(=O)O)[O]2)[O][C@H]([C@H](O)CO)[C@@H]1O` (stereo not given in full) [stibogluconate] + Nc1nc(F)nc2c1ncn2[C@@H]1O[C@H](CO)[C@@H](O)[C@@H]1O [fludarabine] (first compound 2 µM, partner dose 0.2 µM), the cell count was 78.9%.
